Screen size: about 46,000 compounds; about 60 (0.1%) were called active. Not shown: some 3% with an inconclusive outcome. The call rests on the fitted dose curve; in most records, active means well fitted inhibition curve with a large enough effect; inconclusive means small, poorly fitted or top-dose-only effect; inactive means no such curve, though single readings can be large or run the other way. The list shows a part of the results.
Experiment: Primary qHTS assay for Inhibitors of ovarian cancer metastasis using an organotypic tumor microenvironment (TME) model. Further: nearly all actives have a fitted effect of over 65% in size.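 On activity change, negative = inhibition: plate controls were DMSO wells for no effect and tomatine positive control wells for full effect.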
Conditions: SKOV3ip1-GFP adhesion/invasion on 3D omental model, fluorescence; series mostly up to 45.8 µM; activity change, negative = inhibition: at the top concentration
Outline: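 A 3D layer of primary human omental fibroblasts, mesothelial cells, fibronectin and collagen I, grown 48 hr, received SKOV3ip1-GFP cells in serum-free medium plus compounds at 0.36-46 umol/L. After 2 hr RT and 16 hr 37 C, fixed adherent GFP cells were counted; normalized to DMSO and tomatine.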

Activity change, negative = inhibition, inactive:
CCc1ccc(OCC(=O)N(Cc2ccc(C)cc2)Cc2ccco2)cc1 1.87%, Cc1cccc(C)c1-n1ncc(C(=O)NCc2ccc3c(c2)OCO3)c1C1CCN(C(=O)OC(C)(C)C)CC1 -2.35%, CCOc1ccc(CC(=O)Nc2ccc3c(c2)N(C)C(=O)c2ccccc2S3)cc1OCC -12.4%, Cc1cccc(OCC(=O)Nc2nonc2-c2ccc(Br)cc2)c1C -11.3%, CC(=O)N1c2ccc(S(=O)(=O)NCC3CCC(C(=O)Nc4ccccc4C)CC3)cc2CC1C (stereo unspecified) 9.83%, CCCCN(C)CCCNC(=O)c1cc(=O)[nH]c2ccc(S(=O)(=O)N3CCCCC3)cc12 0.162%, Cc1cccc(-n2cc(-c3ccccc3)c3c(NC(C)C)ncnc32)c1 -6.54%, COc1ccc(-n2c(=O)c3ccccc3n(CC(=O)NCCc3ccccc3)c2=O)c(OC)c1 -0.841%, COCCCNC(=O)CN1C(=O)COc2ccc(S(=O)(=O)N3CCCCCC3)cc21 -1.85%, COc1ccc2c(c1)CCc1sc(NC(=O)c3ccc(Cl)cc3)nc1-2 6.49%, CN(Cc1ccccc1)C(=O)CCS(=O)(=O)c1cc(Br)cc2c1N(C(=O)C1CC1)CC2 3.64%, Cc1ccc(NC(=O)CSc2nc(-c3ccc(F)cc3)nc3c2Cc2c(CO)cnc(C)c2O3)cc1C 13.3%, CC1CCN(C(=O)Cn2cc(SCc3ccccc3)c3ccccc32)CC1 1.03%, O=C(COc1ccccc1F)Nc1ccccc1OCc1cc(=O)n2ccccc2n1 -8.17%, COc1ccccc1OCC(=O)Nc1nnc2n1CCS2 8.01%, CCCc1nnc(N2C(=O)c3oc4ccc(F)cc4c(=O)c3C2c2ccc(C(=O)OC)cc2)s1 (stereo unspecified) -14.2%, CCOc1ccc(-n2cc(C(=O)Nc3ccccc3OCC)c3cc(OC)c(OC)cc3c2=O)cc1 -5.02%

outcome, inactive:
CCCN1C(=O)C(O)(CC(=O)c2ccc(CC)cc2)c2cc(Br)ccc21 (stereo unspecified), O=C(Nc1ccc(OC(F)(F)F)cc1)C1CCCN(S(=O)(=O)c2cccc3nonc23)C1 (stereo unspecified), CC1CCN(S(=O)(=O)c2cn(CC(=O)Nc3ccc(F)c(Cl)c3)c(=O)c3ccccc23)CC1, Cc1ccc(NC(=O)CCc2c(C)nc3c(-c4ccccc4)c(C)nn3c2C)c(C)c1, CCC1=Nc2cc(C(=O)NC(C)c3ccccc3)ccc2Sc2ccc(Cl)cc21 (stereo unspecified), O=C(CSc1nccn1-c1cccc(Cl)c1)Nc1cccc(C(F)(F)F)c1, COC(=O)c1ccccc1NC(=O)CN(c1ccccc1OC)S(C)(=O)=O, CC(C)c1ccc(NC(=O)c2ccc(F)c(S(=O)(=O)N3CCCC3)c2)cc1, CC1CCN(c2nnc(-n3cccc3CNc3cccc(F)c3)s2)CC1

From PubChem BioAssay AID1963576 (National Center for Advancing Translational Sciences (NCATS), 2024)
